Patent US20140004122A1, “METHODS FOR TREATING OR PREVENTING CHOLESTEROL RELATED DISORDERS” (AMGEN INC., priority 2011, published 2014)

Target: D374Y PCSK9 binding to LDLR (Homo sapiens, UniProt Q8NBP7, D374Y)
Assay: Large scale receptor ligand blocking screen and functional classification of ABPs
Conditions: functional assays of the screening
Protocol: To screen for the antibodies that block PCSK9 binding to LDLR an assay was developed using the D374Y PCSK9 mutant. […] The following protocol was employed in the receptor ligand blocking screen: Costar 3702 medium binding 384 well plates (Corning Life Sciences) were employed in the screen. The plates were coated with goat anti-LDLR (R&D Cat #AF2148) at 2 μg/ml in 1×PBS/0.05% Azide at a volume of 40 μl/well. The plates were incubated at 4° C. overnight. The plates were then washed using a Titertek plate washer (Titertek, Huntsville, Ala.). A 3-cycle wash was performed. The plates were blocked with 90 μl of 1×PBS/1% milk and incubated approximately 30 minutes at room temperature. The plates were then washed using the Titertek plate washer. A 3-cycle wash was performed. The capture sample was LDLR (R&D, Cat #2148LD/CF), and was added at 0.4 μg/ml in 1×PBS/1% milk/10 mM Ca^2+ at a volume of 40 μl/well. The plates were then incubated for 1 hour and 10 minutes at room temperature. […] OD's were read immediately at 450 nm using a Titertek plate reader. […]
Limiting dilution was used to isolate a manageable number of clones from each line. […] The concentration and potency of the antibodies to PCSK9 in the supernatants of those cultures were determined by ELISA and by in vitro functional testing, as described herein.

neutralizing ability (blocking PCSK9/LDLR): weak neutralizers
B1: 9C9: anti-PCSK9 antibody; light/heavy variable region SEQ ID NO 30/64 (antibody, listed as Homo sapiens, V domains shown)
VH: EVQLVESGGGLVQPGGSLRLSCVVSGFTFSSYWMSWVRQAPGKGLEWVANIKQDGSEKYYVDSVKGRFTISRDNAKNSLYLQMNSLRAEDTAVYYCARESNWGFAFDIWGQGTMVTVSS
VL: QSVLTQPPSASGTPGQRVTISCSGSSSNIGSKTVNWYQQVPGTAPKLLIYRNNQRPLGVPDRFSGSKSGTSASLAISGLQSEDEADYYCAAWDDSLNWVFGGGTKLTVL
